Results taken from PubChem BioAssay AID1963576 (National Center for Advancing Translational Sciences (NCATS), 2024).
Screen size: about 46,000 compounds; about 60 (0.1%) were called active. Inconclusive results (about 3%) are left out. The call rests on the fitted dose curve; in most records, active means well fitted inhibition curve with a large enough effect; inconclusive means small, poorly fitted or top-dose-only effect; inactive means no such curve, though single readings can be large or run the other way. Some of the results follow.

Experiment: Primary qHTS assay for Inhibitors of ovarian cancer metastasis using an organotypic tumor microenvironment (TME) model. Further: nearly all actives have a fitted effect of over 65% in size.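 On activity change, negative = inhibition: plate controls were DMSO wells for no effect and tomatine positive control wells for full effect.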
Conditions: SKOV3ip1-GFP adhesion/invasion on 3D omental model, fluorescence; series mostly up to 45.8 µM; activity change, negative = inhibition: at the top concentration
Outline: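 Primary human omental fibroblast/mesothelial 3D culture pre-formed 48 h. SKOV3ip1-GFP cells added with compounds (0.36-46 umol/L), incubated 2 h RT/16 h 37 C, fixed; GFP cells quantified at 488/509 nm.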

outcome, inactive:
Cc1ccccc1-c1nc(CN2CCCC(C(=O)NCc3ccc(Cl)cc3)C2)c(C)o1 (stereo unspecified)
Cc1ccc2nc(CN3CCN(C(=O)Nc4ccc(F)cc4)CC3)oc2c1
COc1ccc(C2C(=O)N(C3CCCCC3)CC(=O)N2CCc2ccc(C)cc2)cc1OC (stereo unspecified)
COc1ccccc1CNC(=O)C1(c2cccs2)CCOCC1
Cc1cccc(-n2ccnc2SCC(=O)Nc2cccc3ccccc23)c1
Oc1ccccc1-c1nc(-c2cccs2)c(-c2cccs2)[nH]1
COc1ccc(NC(=O)Cn2cc(S(=O)(=O)N3CCC(C)CC3)c3ccccc3c2=O)cc1Cl
COc1ccc2c(c1)c1c(c(=O)n(-c3ccc(C)cc3)c(=O)n1CC(=O)c1ccc(Cl)cc1)n2C
COc1ccc(CN(Cc2ccco2)C(=O)COc2ccc(Cl)cc2C)cc1
Cc1ccc(NC(=O)Cn2c(=O)c(C(F)(F)F)nc3ccccc32)cc1C
Cc1oc2c(c1C(=O)Nc1ccc(F)c(F)c1)C1=NCCN1C=N2

Activity change, negative = inhibition, inactive:
CNC(=O)C1CCC(Cn2c(=O)c3sccc3n(Cc3cc(C)ccc3C)c2=O)CC1 (stereo unspecified) 6.9%
CSc1nc(NCCOC(C)=O)c(C#N)c(-c2ccc(C(C)(C)C)cc2)n1 -7.71%
CCOC(=O)c1c(NC(=O)c2cc(-c3ccccc3OC)on2)sc(C)c1C 2.43%
O=C(COc1ccccc1F)Nc1ccc2nc(SCC(=O)N3CCc4ccccc43)sc2c1 2.55%
CCc1ccccc1NC(=O)Cn1nc2c3cc(F)ccc3n(Cc3cccc(C)c3)cc-2c1=O 1.85%
COc1ccc(NC(=O)CCc2c(C)nc3c(c2C)c(=O)n(C)c(=O)n3C)c(OC)c1 -0.395%
COc1ccc(-c2nc3nc(C)cc(C)n3c2Nc2c(C)cccc2C)cc1 17.9%
Cc1cc(C)c2nc(N(Cc3cccnc3)C(=O)CCS(=O)(=O)c3ccccc3)sc2c1 -9.67%
Cc1cc(NC(=O)C2CCN(S(=O)(=O)c3c(C)noc3C)CC2)ccc1Br 6.46%
CC1=C(C(=O)Nc2cccnc2)C(c2ccc(F)cc2)n2nc(-c3cccc(C)c3)nc2N1 (stereo unspecified) -10.6%
CCc1ccc2oc(C(=O)NCC(c3ccc(OC)cc3)N3CCCCC3)c(C)c2c1 (stereo unspecified) 0.555%
N#Cc1c[nH]n2c(NC3CCCCC3)c(-c3ccc(F)cc3)nc12 -5.57%
CCc1ccc(OCC(=O)Nc2ccc3c(c2)c2ccccc2n3CC)cc1 13.3%
O=C(COc1ccccc1Cl)Nc1ccc(OCc2cc(=O)n3ccsc3n2)cc1 -6.77%
Cc1cc(C)cc(OCCSc2nc3ccc(NC(=O)c4ccc5c(c4)OCO5)cc3s2)c1 -3.3%
Cc1ccc(C)c(N2CCN(C(=O)c3ccc(-c4nc(COc5ccccc5)c(C)o4)cc3)CC2)c1 1.04%
CCOc1ccc(NC(=O)c2ccc3[nH]c(C)cc(=O)c3c2)cc1 16.8%
Cc1ccccc1C(=O)Nc1cccc(OCc2cc(=O)n3c4c(sc3n2)CCCC4)c1 -4.08%
CC1CCN(S(=O)(=O)c2ccc3c(c2)N(CC(=O)NCCN(C)C)C(=O)CO3)CC1 -2.47%
Cc1ccc(C)c(CNS(=O)(=O)c2ccc3c(c2)C(C)(C)C(=O)N3C)c1 -14.8%
O=C(CCCCn1c(=O)[nH]c2ccsc2c1=O)N1CCN(c2cccc(C(F)(F)F)c2)CC1 26.5%
CC(=O)N1CCc2c(sc3c2c(=O)n(-c2cccc(Cl)c2C)c(=O)n3Cc2ccccc2C)C1 9.24%
Cc1ccc2c(c1)cc1c(=O)n(CC(=O)N(C)c3ccccc3)nc(C)n12 93.4%
CCOC(=O)c1c(S(=O)(=O)N2CCCC(C(=O)NCc3ccc(F)cc3)C2)c(C)n(CC)c1C (stereo unspecified) -16%
COc1cccc(-c2nnc(SCC(=O)N3CCCCC3)o2)c1 10.2%
OC1CCC(Nc2ncc3nc(Nc4c(F)cc(F)cc4F)n([C@@H]4CCOC4)c3n2)CC1 (stereo partly specified) 33.4%
CCOC(=O)c1cccc(NC(=O)c2ccc3c(c2)nnn3CC)c1 2.11%
O=C(OCc1cc(=O)n2nc(-c3cccs3)sc2n1)c1cccc(Cl)c1 -5.73%
COc1ccc(CNC(=O)C2CCCN(S(=O)(=O)N(C)c3ccc(F)cc3)C2)cc1OC (stereo unspecified) 13.8%
Cc1ccc(C(C(=O)NC2CCCCC2)N(C)Cc2ccccc2)cc1 (stereo unspecified) -17.3%
CCOC(=O)c1ccccc1NC(=O)Cn1nnc2sc3c(c2c1=O)CCCC3 2.39%
CCOc1ccc(NC(=O)c2oc3ccccc3c2NC(=O)C2CCCCC2)cc1 11.9%
Cc1cccc(C)c1NC(=O)c1nc(S(C)(=O)=O)ncc1N(Cc1ccc(C(C)(C)C)cc1)Cc1ccco1 -2.9%
CCOC(=O)c1ccccc1Nc1nc2ccc(C)cc2n2nnnc12 -16%
Cn1cc(-c2cc3n(n2)CCC(=O)N3CCCC(=O)NCc2ccc(F)cc2)c2ccccc21 -11.5%
CCc1cccc(CC)c1NC(=O)CCS(=O)(=O)c1ccc(Br)s1 -26.5%
CC(C)CNC(=O)N1CCN(S(=O)(=O)c2ccc3c(ccn3C)c2)CC1 -11.2%
Cc1ccc(NC(=O)CSc2nc3nc(C)c(Cc4ccccc4)c(C)n3n2)cc1 8%
CCN1CCN(Cc2c(O)ccc3oc(C)c(C(=O)Nc4ccc(OC)cc4)c23)CC1 -7.92%
COc1ccc(-c2cc(C(F)(F)F)n3nc(C(=O)Nc4cc(C(F)(F)F)ccc4Cl)cc3n2)cc1OC -3.79%
COc1ccc(Cn2ccnc2SCC(=O)Nc2ccc3c(c2)OCO3)cc1 0.241%
Cc1ccc2oc3c(c(=O)c2c1)C(c1ccccc1F)N(c1ccccn1)C3=O (stereo unspecified) 8.91%
Cc1cccc(C(=O)NCC(c2cccs2)S(=O)(=O)c2cccs2)c1 (stereo unspecified) 4.39%
COc1ccc(C(=O)Nc2ccc(NC(=O)c3cccs3)cc2)cc1OC -14.5%
COc1ccccc1CCNC(=O)C(=O)NCC(c1ccco1)S(=O)(=O)c1cccs1 (stereo unspecified) 29.5%
Cc1ccc(NC(=O)N2CC3CCCN3c3ccccc32)cc1C (stereo unspecified) -19.5%
CN(C)c1ccc(CN(Cc2ccco2)C(=O)COc2ccc(F)cc2)cc1 -5.78%
O=C(NCC(c1ccc2c(c1)OCO2)N1CCN(c2ccccc2)CC1)C(=O)Nc1ccc(F)cc1 (stereo unspecified) -4.08%
CCOc1ccc(C(=O)c2cn(CC(=O)Nc3ccc(OC)cc3)c3cc4c(cc3c2=O)OCO4)cc1 -0.308%
CCOC(=O)c1ccc(CN(Cc2ccc(C)cc2)S(=O)(=O)c2ccc(F)c(C(=O)Nc3ccc(C)c(F)c3)c2)cc1 6.4%
